Source: the antibiotic and cytotoxicity screens of Wong et al. (2023)
Some of the results follow.

Experiments:
HSkMC = human skeletal muscle cells; experiment: cytotoxicity call (relative viability < 0.9); details: 10 µM
HepG2 = experiment: cytotoxicity call (relative viability < 0.9); details: 10 µM
S. aureus RN4220 = experiment: growth inhibition call (relative growth <= 0.2); details: 50 µM

Structure (SMILES)	cytotoxicity call (HSkMC)	cytotoxicity call (HepG2)	growth inhibition call (S. aureus RN4220)
C[C@H](CO)N1C[C@H](C)[C@@H](CN(C)S(=O)(=O)c2ccccc2)Oc2ccc(NC(=O)c3ccncc3)cc2C1=O	inactive	inactive	inactive
C=CCC[C@@H](Cc1ccc(F)cc1)C(=O)O[C@@H](CNC(=O)[C@@H](CC=C)CC(=O)N(CCO)Cc1ccccc1)c1ccccc1	active	active	inactive
C[C@@H]1CCCCO[C@@H](CN(C)Cc2ccc3c(c2)OCO3)[C@@H](C)CN([C@@H](C)CO)C(=O)c2cc(NC(=O)Cc3ccccc3)ccc2O1	inactive	inactive	inactive
O=C1O[C@@H](c2ccccc2)[C@@H](c2ccccc2)N2[C@@H](c3ccc(O)cc3)[C@]3(C(=O)Nc4ccc(C#CC5=CCCCC5)cc43)[C@@H](C(=O)Nc3nc4ccccc4s3)[C@H]12	inactive	inactive	inactive
C[C@@H]1CCCCO[C@@H](CN(C)C(=O)NC2CCCCC2)[C@@H](C)CN([C@H](C)CO)C(=O)c2cc(NC(=O)Nc3ccc4c(c3)OCO4)ccc2O1	inactive	inactive	inactive
Cc1cccc(-n2cc(CN)cn2)c1	inactive	inactive	inactive
C[C@@H]1CN([C@@H](C)CO)C(=O)c2cccc(NC(=O)C3CC3)c2O[C@@H]1CN(C)Cc1ccc(-c2ccccc2)cc1	inactive	inactive	inactive
Cc1ccc(S(=O)(=O)Nc2ccc3c(c2)C(=O)N([C@@H](C)CO)C[C@H](C)[C@@H](CN(C)Cc2ccccc2)OCCCC[C@H](C)O3)cc1	inactive	inactive	inactive
Cc1noc(C)c1NC(=O)Nc1ccc2c(c1)CC(=O)N([C@@H](C)CO)C[C@@H](C)[C@@H](CN(C)S(=O)(=O)c1cccs1)O2	inactive	inactive	inactive
N[C@@H](CCC(=O)N[C@@H](CS[N+][O-])C(=O)NCC(=O)O)C(=O)O	inactive	inactive	inactive
CCS(=O)(=O)Nc1ccc2c(c1)C(=O)N(C)[C@@H]1CC[C@H](CC(=O)NCCCN3CCOCC3)O[C@@H]1CO2	inactive	inactive	inactive
CNC(=O)CN1CCO[C@H]2CN(C(=O)COC)C[C@@H]21	inactive	inactive	inactive
COc1cccc(S(=O)(=O)N(C)C[C@@H]2Oc3c(NC(=O)Nc4cccc5ccccc45)cccc3C(=O)N([C@@H](C)CO)C[C@H]2C)c1	inactive	active	inactive
N[C@@H](Cc1ccccn1)c1ccccc1	inactive	inactive	inactive
C[C@H](CO)N1C[C@H](C)[C@@H](CN(C)S(C)(=O)=O)Oc2ccc(NS(=O)(=O)c3ccccc3)cc2CC1=O	inactive	inactive	inactive
C[C@@H]1CN([C@H](C)CO)C(=O)c2cc(-c3cccc(C#N)c3)cnc2O[C@@H]1CN(C)C(=O)c1cnccn1	inactive	inactive	inactive
C[C@H](CO)N1C[C@H](C)[C@H](CN(C)C(=O)c2cnccn2)Oc2cc(C#CCC3CCCC3)ccc2S1(=O)=O	inactive	inactive	inactive
CC(C)(C)c1csc(-c2ccc(-c3cccs3)s2)n1	inactive	inactive	inactive
NCc1ccnc(N2CCCC2)c1	inactive	inactive	inactive
O=C(C[C@@H]1C=C[C@@H](NC(=O)c2cnccn2)[C@@H](CO)O1)NCc1ccccc1F	inactive	inactive	inactive
O=C(C[C@@H]1C[C@H]2c3cc(NS(=O)(=O)c4ccc(F)cc4)ccc3O[C@H]2[C@@H](CO)O1)NCc1ccccn1	inactive	inactive	inactive
C[C@@H]1CCCCO[C@@H](CN(C)Cc2ccc(Cl)c(Cl)c2)[C@H](C)CN([C@H](C)CO)C(=O)c2cc(NC(=O)Nc3ccc(F)cc3)ccc2O1	inactive	inactive	inactive
NC(=O)c1ccccc1F	inactive	inactive	inactive
C[C@H](CO)N1C[C@H](C)[C@@H](CN(C)C(=O)Nc2ccc(F)cc2)OCCCC[C@H](C)Oc2ccc(NC(=O)NC3CCCCC3)cc2C1=O	inactive	inactive	inactive
CC(C)NC(=O)N(C)C[C@H]1Oc2c(NC(=O)Nc3ccc4c(c3)OCO4)cccc2C(=O)N([C@H](C)CO)C[C@@H]1C	inactive	inactive	inactive
C[C@H](CO)N1C[C@H](C)[C@H](CN(C)C(=O)Cc2cccnc2)Oc2cc(C#CC3(O)CCCC3)ccc2S1(=O)=O	inactive	inactive	inactive
C[C@H](CO)N1C[C@H](C)[C@@H](CN(C)C(=O)Nc2ccc(C(F)(F)F)cc2)OCCCC[C@H](C)Oc2ccc(NC(=O)Nc3ccc(C(F)(F)F)cc3)cc2C1=O	inactive	inactive	inactive
